Results: the supplement of paper PMC4967469

Columns and labels:
Experiment in all cases: Viability of human cancer cell lines after 72 h of drug (GDSC screen)
XMD13-2 = compound: O=C(NC1CC1)c1cccc(-c2ccc3c(NC(=O)C4CC4)n[nH]c3c2)c1 [XMD13-2]; conditions: top dose 10.24 µM; top dose inferred
Method: (§1)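 Human cancer cell lines in 384-well plates, medium with 10% serum, drug for 72 h over a 256-fold dose range (nine 2-fold or five 4-fold steps up to the top dose). Adherent lines were fixed and stained with the nucleic acid dye Syto60, suspension lines read with resazurin; signal relative to control wells, capped at 0 and 100%. One two-parameter sigmoid per drug and line, fitted in a mixed model over all curves with the slope shared within a line.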

SNX-2112 = compound: CC1(C)CC(=O)c2c(C(F)(F)F)nn(-c3ccc(C(N)=O)c(N[C@H]4CC[C@H](O)CC4)c3)c2C1 [SNX-2112]; conditions: top dose 2.56 µM
Method: as §1

Vinblastine = compound: CC[C@]1(O)C[C@@H]2CN(CCc3c([nH]c4ccccc34)[C@@](C(=O)OC)(c3cc4c(cc3OC)N(C)[C@H]3[C@@](O)(C(=O)OC)[C@H](OC(C)=O)[C@]5(CC)C=CCN6CC[C@]43[C@@H]65)C2)C1 [Vinblastine]; conditions: top dose 0.1 µM; top dose inferred
Method: as §1

Afatinib = compound: CN(C)C/C=C/C(=O)Nc1cc2c(Nc3ccc(F)c(Cl)c3)ncnc2cc1O[C@H]1CCOC1 [Afatinib]
Method: as §1

PF-562271 = compound: CN(c1ncccc1CNc1nc(Nc2ccc3c(c2)CC(=O)N3)ncc1C(F)(F)F)S(C)(=O)=O [PF-562271]; conditions: top dose 2.56 µM; top dose inferred
Method: as §1

[1] = top dose 0.5 µM, screen: GDSC drug entry 1032
[2] = top dose 10 µM, screen: GDSC drug entry 1377, top dose inferred

Row | Cell Line | AUC (XMD13-2) | IC50 (XMD13-2) [nM] | AUC (SNX-2112) | IC50 (SNX-2112) [nM] | AUC (Vinblastine) | IC50 (Vinblastine) [nM] | AUC (Afatinib; [1]) | IC50 (Afatinib; [1]) [nM] | AUC (Afatinib; [2]) | IC50 (Afatinib; [2]) [nM] | AUC (PF-562271) | IC50 (PF-562271) [nM]
1 | IA-LM (large cell lung carcinoma, adherent) | 0.909 | > 10200 | 0.706 | 662 | 0.789 | 50.3 | 0.985 | > 500 | 0.946 | > 10000 | 0.905 | > 2560
2 | IGR-1 (melanoma, adherent) | 0.983 | > 10200 | 0.663 | 425 | 0.691 | 19.8 | 0.989 | > 500 | 0.99 | > 10000 | 0.905 | > 2560
3 | IHH-4 (thyroid, semi-adherent) | 0.954 | > 10200 | 0.992 | > 2560 | 0.331 | 2.36 | 0.991 | > 500 | 0.965 | > 10000 | 0.891 | 1940
4 | IMR-5 (neuroblastoma, adherent) | 0.89 | 8520 | 0.489 | 150 | 0.831 | 49.8 | 0.982 | > 500 | 0.944 | > 10000 | 0.897 | 2270
5 | IPC-298 (melanoma, adherent) | 0.954 | > 10200 | 0.467 | 130 | 0.636 | 14.7 | 0.98 | > 500 | 0.986 | > 10000 | 0.925 | > 2560
6 | IST-MEL1 (melanoma, adherent) | 0.941 | > 10200 | 0.348 | 55.7 | 0.501 | 6.31 | 0.965 | > 500 | 0.974 | > 10000 | 0.91 | > 2560
7 | IST-SL1 (small cell lung carcinoma, semi-adherent) | 0.683 | 2110 | 0.886 | > 2560 | 0.336 | 2.15 | 0.98 | > 500 | 0.978 | > 10000 | 0.905 | > 2560
8 | JEG-3 (urogenital system, adherent) | 0.99 | > 10200 | 0.991 | > 2560 | 0.554 | 8.66 | 0.988 | > 500 | 0.979 | > 10000 | 0.977 | > 2560
9 | JHH-1 (liver, adherent) | 0.916 | > 10200 | 0.791 | 1260 | 0.629 | 14.7 | 0.69 | 112 | 0.484 | 563 | 0.924 | > 2560
10 | JHH-2 (liver, adherent) | 0.935 | > 10200 | 0.428 | 100 | 0.755 | 36.2 | 0.968 | > 500 | 0.972 | > 10000 | 0.973 | > 2560
11 | JHH-4 (liver, adherent) | 0.986 | > 10200 | 0.84 | 1750 | 0.925 | > 100 | 0.976 | > 500 | 0.952 | > 10000 | 0.951 | > 2560
12 | JHH-6 (liver, adherent) | 0.987 | > 10200 | 0.872 | 2520 | 0.652 | 16.6 | 0.987 | > 500 | 0.985 | > 10000 | 0.905 | > 2560
13 | JHH-7 (liver, adherent) | 0.908 | > 10200 | 0.765 | 884 | 0.67 | 18 | 0.981 | > 500 | 0.962 | > 10000 | 0.892 | > 2560
14 | JHU-011 (head and neck, adherent) | 0.812 | 5360 | 0.393 | 81.8 | 0.352 | 2.45 | 0.515 | 34.3 |  |  | 0.886 | > 2560
15 | JHU-022 (head and neck, adherent) | 0.968 | > 10200 | 0.84 | 2490 | 0.604 | 13.1 | 0.691 | 125 | 0.61 | 1360 | 0.873 | > 2560
16 | JIMT-1 (breast, adherent) | 0.981 | > 10200 | 0.846 | 2090 | 0.424 | 3.8 | 0.921 | > 500 | 0.869 | > 10000 | 0.936 | > 2560
17 | JJN-3 (haematopoietic neoplasm, suspension) | 0.743 | 2700 | 0.343 | 64 | 0.237 | 1.3 | 0.984 | > 500 | 0.977 | > 10000 | 0.933 | > 2560
18 | JM1 (B-cell lymphoma, suspension) | 0.836 | 5460 | 0.28 | 42.5 | 0.599 | 11.2 | 0.989 | > 500 | 0.988 | > 10000 | 0.917 | > 2560
19 | JSC-1 (B-cell lymphoma, suspension) | 0.707 | 2430 | 0.239 | 28.4 | 0.552 | 8.63 | 0.987 | > 500 | 0.983 | > 10000 | 0.963 | > 2560
20 | JURL-MK1 (chronic myeloid leukaemia, suspension) | 0.932 | > 10200 | 0.283 | 39 | 0.441 | 4.32 | 0.97 | > 500 | 0.961 | > 10000 | 0.95 | > 2560
21 | JVM-2 (lymphoid neoplasm, suspension) | 0.956 | > 10200 | 0.648 | 454 | 0.536 | 8.04 | 0.981 | > 500 | 0.927 | > 10000 | 0.961 | > 2560
22 | JVM-3 (lymphoid neoplasm, suspension) | 0.981 | > 10200 | 0.396 | 82.3 | 0.134 | 0.428 | 0.984 | > 500 | 0.967 | > 10000 | 0.976 | > 2560

Row | Cell Line | AUC (XMD13-2) | IC50 (XMD13-2) [nM] | AUC (SNX-2112) | IC50 (SNX-2112) [nM] | AUC (Vinblastine) | IC50 (Vinblastine) [nM] | AUC (Afatinib; [1]) | IC50 (Afatinib; [1]) [nM] | AUC (Afatinib; [2]) | IC50 (Afatinib; [2]) [nM] | AUC (PF-562271) | IC50 (PF-562271) [nM]
23 | JiyoyeP-2003 (Burkitt lymphoma, suspension) | 0.958 | > 10200 | 0.46 | 126 | 0.59 | 10.7 | 0.991 | > 500 | 0.979 | > 10000 | 0.956 | > 2560
24 | K2 (melanoma, adherent) | 0.934 | > 10200 | 0.906 | > 2560 | 0.749 | 41.2 | 0.982 | > 500 | 0.98 | > 10000 | 0.803 | 1740
25 | KARPAS-45 (lymphoblastic leukaemia, suspension) | 0.814 | 4440 | 0.18 | 22 | 0.317 | 2.12 | 0.98 | > 500 | 0.991 | > 10000 | 0.919 | > 2560
26 | KARPAS-299 (anaplastic large cell lymphoma, suspension) | 0.971 | > 10200 | 0.504 | 163 | 0.368 | 2.9 | 0.992 | > 500 | 0.982 | > 10000 | 0.987 | > 2560
27 | KARPAS-422 (B-cell lymphoma, suspension) | 0.915 | > 10200 | 0.466 | 130 | 0.753 | 33 | 0.986 | > 500 | 0.978 | > 10000 | 0.94 | > 2560
28 | KARPAS-620 (haematopoietic neoplasm, suspension) | 0.638 | 1450 | 0.318 | 54 | 0.582 | 10.1 | 0.991 | > 500 | 0.984 | > 10000 | 0.979 | > 2560
29 | KCL-22 (chronic myeloid leukaemia, suspension) | 0.782 | 3580 | 0.281 | 43.3 | 0.653 | 15.4 | 0.991 | > 500 | 0.978 | > 10000 | 0.917 | > 2560
30 | KE-37 (lymphoblastic leukaemia, suspension) | 0.866 | 5770 | 0.171 | 23.2 | 0.448 | 4.68 | 0.992 | > 500 | 0.994 | > 10000 | 0.916 | 2190
31 | KELLY (neuroblastoma, adherent) | 0.969 | > 10200 | 0.823 | 1330 | 0.687 | 19.7 | 0.957 | > 500 | 0.987 | > 10000 | 0.961 | > 2560
32 | KGN (ovary, adherent) | 0.88 | > 10200 | 0.267 | 29.5 | 0.724 | 31.4 | 0.979 | > 500 | 0.937 | > 10000 | 0.965 | > 2560
33 | KINGS-1 (glioma, adherent) | 0.911 | > 10200 | 0.416 | 86.2 | 0.542 | 8.5 | 0.933 | > 500 | 0.97 | > 10000 | 0.89 | > 2560
34 | KLE (endometrium, adherent) | 0.932 | > 10200 | 0.782 | 1780 | 0.871 | > 100 | 0.894 | > 500 | 0.931 | > 10000 | 0.94 | > 2560
35 | KM12 (large intestine, adherent) | 0.908 | > 10200 | 0.68 | 533 | 0.563 | 9.44 | 0.983 | > 500 | 0.895 | > 10000 | 0.665 | 482
36 | KM-H2 (Hodgkin lymphoma, suspension) | 0.892 | 8810 | 0.587 | 266 | 0.649 | 15.1 | 0.993 | > 500 | 0.992 | > 10000 | 0.982 | > 2560
37 | KMH-2 (thyroid, adherent) | 0.94 | > 10200 | 0.949 | > 2560 | 0.333 | 2.28 | 0.989 | > 500 | 0.986 | > 10000 | 0.793 | 1030
38 | KMOE-2 (acute myeloid leukaemia, suspension) | 0.95 | > 10200 | 0.302 | 47.7 | 0.581 | 10.2 | 0.99 | > 500 | 0.947 | > 10000 | 0.942 | > 2560
39 | KMRC-1 (kidney, adherent) | 0.98 | > 10200 | 0.838 | 1890 | 0.879 | > 100 | 0.978 | > 500 |  |  | 0.888 | > 2560
40 | KMRC-20 (kidney, adherent) | 0.986 | > 10200 | 0.975 | > 2560 | 0.601 | 11.9 | 0.965 | > 500 | 0.983 | > 10000 | 0.989 | > 2560
41 | KMS-12-BM (myeloma, suspension) | 0.579 | 1010 | 0.4 | 89.8 | 0.36 | 2.77 | 0.991 | > 500 |  |  | 0.937 | > 2560
42 | KNS-42 (glioma, adherent) | 0.964 | > 10200 | 0.71 | 711 | 0.694 | 24.6 | 0.984 | > 500 | 0.959 | > 10000 | 0.919 | > 2560
43 | KNS-81-FD (glioma, adherent) | 0.919 | > 10200 | 0.859 | > 2560 | 0.536 | 8.11 | 0.965 | > 500 | 0.97 | > 10000 | 0.919 | > 2560

Lines with a small IC50 respond at low doses; fits outside the tested doses are given as limits. AUC sums up the same curve from the lowest dose to the 256-fold higher top dose; it is 1 without any effect and falls as sensitivity rises. For part of these data: A top dose marked as inferred is not printed in the source and was worked back from the curve model. For part of these data: Drugs with an entry number were screened twice under separate entries, and the two screens often disagree.
